# About 540 (0.36%) of roughly 150,000 compounds showed an effect of 50% or more. This is one part of the list.
# Tested on: Plasmodium falciparum
# Assay: Primary screen in NF54 nanoGlo assay, in single point, at 2uM, 72h; a lower Z score goes with more inhibition
# Format: functional, Erythrocyte
# Details: timepoint 72 hour
SMILES,% Inhibition,Z score
CC(C)n1cc(Br)cc1C(=O)O,-6%,0.87
O=C([C@H]1C[C@@H]1c1ccc(F)cc1F)N1CC(n2cncn2)C1,-2%,0.22
c1ccc(Cc2nnc3n2CCN(CCOc2ccccn2)C3)cc1,-8%,0.91
Cn1nc(C(=O)N2CCC(O)(C3CCC3)CC2)c2ccccc2c1=O,6%,-1
CCc1c[nH]c2ncnc(N3CC(CO)(c4ccccc4)C3)c12,-1%,0.15
COc1cc(C(=O)N[C@@H](c2ccccc2)c2ccc(Cl)cc2)ccc1OCC(=O)N1CCOCC1,-3%,0.44
Cc1ccc2c(=O)c(-c3nc(-c4ccc(F)cc4)no3)cn(CC(=O)Nc3ccccc3F)c2n1,-13%,1.17
Cc1nnc(N2C[C@H](C)OC(C)(C)C2)c(C#N)c1C,-11%,1.42
O=C(N[C@@H]1CC[C@@H](C(F)(F)F)N(Cc2cocn2)C1)C(F)(F)F,-8%,1.12
O=C(C1CC1(F)c1ccccc1)N1CCC1 (centres undefined),3%,-0.28
C[C@@H](CN1CC2(CCN(Cc3cc(=O)n4ncnc4[nH]3)CC2)OC1=O)c1ccccc1,-12%,1.31
Cc1ccc(C(=O)N2CCN(c3nc(C4CC4)nc4c3cnn4-c3ccccc3)CC2)cc1,-15%,1.59
CC1CN(CC2CCN(C(=O)CC3CN(C(=O)OC(C)(C)C)C3)CC2)CC(C)O1 (centres undefined),-14%,1.77
Cc1nccc(NC(=O)c2cnc3c(cnn3[C@@H](C)C3CC3)c2)n1,-1%,0.17
COc1ccc(-c2ccnn3c(N)nc(-c4ccccc4)c23)cc1,-14%,1.79
CCCCOc1ccc(C(=O)Nc2ccncc2NC(=O)c2ccc(OCCCC)cc2)cc1,-7%,1.22
Cc1csc([C@@H]2CCCN2C(=O)c2cc3cnccc3[nH]2)n1,12%,-1.35
CCC(CC)(CCO)CN[C@H]1CCc2c(cccc2OC)C1,-5%,1.02
CCc1ncnc(NCC2(S(N)(=O)=O)CCC2)c1F,-9%,1.54
CC[C@@H](COC)n1cnc(-c2ccccc2)c1-c1cc(C)n[nH]1,-4%,0.71
Cc1ccc(C(=O)N2CCN(c3nc4cc(C)c(C)cc4nc3C(F)(F)F)CC2)cc1,-4%,0.81

SMILES,% Inhibition,Z score
CC(C)c1nc(CNc2cnccn2)c[nH]1,-20%,2.18
COCCO[C@H]1CN(C2CCN(C(=O)Nc3ccccc3F)CC2)C12CCCCC2,-3%,0.49
Cc1cc(CN(c2ccc(Cl)cc2F)S(C)(=O)=O)nc(C)n1,-4%,0.39
CN(CC#N)Cc1cc(F)cc(Br)c1,-9%,1.38
Brc1ccc(N=C2CCCCCCN2)cc1,2%,-0.22
Cc1cc2c(NC(=O)N3CCC(Cc4noc(C)n4)CC3)cccc2nn1,-8%,0.83
Cc1nc(-c2cc(S(=O)(=O)N3CCC[C@H](C(=O)N4CCc5ccccc5C4)C3)c(C)s2)no1,-9%,0.89
CCc1ccnc(C(=O)Nc2cc(C(=O)OC)nn2C)c1,-8%,0.95
Cc1nn(C)c(C)c1CC(=O)NC(C1CC1)C1CC1,3%,-0.42
CC[C@@H](CO)N1CCN(C(=O)CCc2ccc(C)s2)CC1,-17%,2.23
CCCc1cc(C(=O)N[C@@H]2C[C@H]3OCC[C@@H]23)no1,-9%,1.01
CC(C)COC(=O)N1CCC2(CCN(Cc3cccc(C#N)c3)CC2)CC1,0%,0.04
COc1ccc(CNC(=O)c2ccc(N3C(=O)[C@@H]4Cc5c([nH]c6ccccc56)C(c5cccc(OC)c5)N4C3=O)cc2)cc1 (some centres undefined),49%,-7.23
Cc1ccc2c(Cc3nnn[nH]3)cn(C)c2c1,5%,-0.97
O=C(O)[C@H]1CCCN1C(=O)c1cc2cccc(Cl)c2o1,-16%,1.38
COc1cc(NC(=O)N(C)CC[C@H]2CCCCO2)cc(-n2cnnn2)c1,-4%,0.69
CN(Cc1ccccc1)C(=O)Cn1c(=O)[nH]c2c(-c3ccccc3F)c[nH]c2c1=O,-5%,0.82
CC(C)(C)C(=O)NC[C@H]1CCCC1(F)F,-8%,1.66
Cc1ccnc(Oc2cc(N[C@@H](C)c3nnc(C)o3)ccc2C)c1,-10%,1.83
CC(NC1CCN(CC(F)(F)F)C1)c1cccc(-n2cccn2)c1 (centres undefined),1%,-0.15
NC1(c2noc(-c3ccc(Cl)c(C(F)(F)F)c3)n2)CCC1,6%,-0.79

# — ChEMBL document CHEMBL4888484, “Replenishing the malaria drug discovery pipeline: Screening and hit evaluation of the MMV Hit Generation Library 1 (HGL1) against asexual blood stage Plasmodium falciparum ,using a nano luciferase reporter read-out” (2022)
